This is one part of the list. At the low end of the ranking, values are background and their order means little.

The target of this assay is SIX1 homeodomain (reference allele) (UniProt Q15475). As to the kind of experiment: universal protein binding microarray. The following applies: Universal all-10-mer PBM (8x60K, AMADID 030236), 300 nM GST-tagged protein, Alexa Fluor 488 anti-GST; buffer, salt, pH and temperature not stated; high values mean tight binding; most listed sequences are background and not binding sites; double strand, one strand shown.
Consider CTCGTTCA, for which the binding signal is -0.0856 E-score. The value for CGGCCAGA was 0.0419 E-score. The value for GAGATGGA was 0.0841 E-score. The value for CAGTACTA was -0.0442 E-score; that for CAACGATC was 0.277 E-score; that for AGCAGACC was -0.272 E-score. For the sequence CTGATGCA, the binding signal was -0.0826 E-score. The value for CATTTTTC was -0.157 E-score.

Turning to CTATTTAA, the binding signal was -0.129 E-score. The result for AGGTAGGC reads 0.167 E-score; that for CCGGACGG, -0.0553 E-score; that for ACGTAACA, -0.0601 E-score. The value for GGCACGAC was -0.11 E-score; that for CATGGGCG was -0.0545 E-score. Regarding ACATCCGC, the binding signal is 0.0351 E-score.

As to CGCGTATA, the binding signal worked out at 0.232 E-score.

On to ACTGGTTC, for which the binding signal was -0.125 E-score. The value for CACGAACG was -0.0101 E-score. The value for AGCCTTCC was -0.106 E-score; that for GGGCTCAC was 0.268 E-score; that for ACGCGCCA was -0.192 E-score.

Regarding CACGCACA, the binding signal is -0.0653 E-score. The result for ATAGGGCG reads 0.158 E-score; that for AGCTCAGA, -0.0115 E-score; that for AGCAACTG, -0.151 E-score. As for AACTAAGC, the binding signal was -0.131 E-score. As for ACTCCGCA, the binding signal was -0.11 E-score.

GCGCGGAA: the binding signal was -0.124 E-score.

Take ATGTCATA: the binding signal was -0.0499 E-score. The value for CAGACCGA was 0.116 E-score. The result for CGGGCACA reads -0.0378 E-score; that for GCTGGACC, -0.184 E-score.

On to CCTTGGAC, for which the binding signal is -0.207 E-score.

For the sequence ATCGTCAG, the binding signal worked out at 0.0979 E-score. The value for ACGACCAG was -0.0546 E-score; that for GCTTTATA was -0.00246 E-score.

On to AAGCTTTG, for which the binding signal was -0.077 E-score. As for CGGTCACC, the binding signal was -0.108 E-score. The result for AACAGCGG reads -0.255 E-score; that for ATGTATCC, 0.407 E-score. The result for CGGTGCTA reads 0.177 E-score; that for GCCAGAGA, 0.107 E-score; that for AGCCCATC, -0.0568 E-score.

Turning to GCCCCCGC, the binding signal was -0.0387 E-score. The value for CTCTCCTC was -0.0876 E-score; that for AATAGTCA was -0.0564 E-score; that for CTAGACAG was -0.0706 E-score. The value for CGCTGAAC was -0.113 E-score. The value for AACTTTGG was -0.122 E-score; that for ACTAGTCC was -0.129 E-score.

Take GAGTGAGA: the binding signal worked out at 0.234 E-score. Consider CTCGCTAC, for which the binding signal was 0.0552 E-score.

AAGGCACT: the binding signal is -0.234 E-score. The value for CTCTGCTC was -0.0803 E-score; that for ATTCACGC was 0.0582 E-score. Consider AGATGGTA, for which the binding signal worked out at 0.0826 E-score. The value for CCCACCAC was 0.00391 E-score; that for AAGTGGTA was -0.0268 E-score; that for CCATCGTA was -0.00582 E-score.

In the case of CACGGATG, the binding signal stood at 0.132 E-score. The result for AGAGAGCG reads 0.00635 E-score; that for CTCAAGAA, -0.0726 E-score. The result for CGTGGGTA reads 0.148 E-score; that for ACAGTGCG, -0.202 E-score. The value for ATGCCCAG was 0.00732 E-score; that for AGCGTGCA was 0.0568 E-score. Turning to ATACCTAG, the binding signal came out at 0.392 E-score. The result for AGGTAGAA reads 0.0975 E-score; that for ACATACAC, 0.11 E-score; that for CCAGATAC, 0.409 E-score.

With AGTGCACC, the binding signal was -0.0484 E-score.

Regarding GGATTCAC, the binding signal is -0.0111 E-score. As to AGGGCCCG, the binding signal was -0.0862 E-score. The result for AGTAGACC reads -0.0203 E-score; that for AATAATCC, 0.243 E-score; that for CCCCATAC, 0.0621 E-score. The result for CAATAGGC reads -0.0717 E-score; that for CCACCAAA, -0.108 E-score; that for AGAATTCC, -0.267 E-score. The value for AGCCAACA was -0.141 E-score. Regarding CACGGATA, the binding signal was 0.397 E-score. The result for GCACCGAC reads -0.1 E-score; that for AGAGTTAA, -0.195 E-score; that for AAAGTGCG, -0.275 E-score. The result for AACTCAGC reads -0.221 E-score. The result for GCGCCCAC reads -0.154 E-score; that for AGCACGAT, 0.0364 E-score; that for CACGCTCC, -0.249 E-score. CTAGGGAC: the binding signal was -0.0435 E-score. Regarding AGTAAGTG, the binding signal is -0.0953 E-score. For the sequence CTACCTCC, the binding signal stood at 0.0542 E-score. AGGAAATC: the binding signal was -0.181 E-score.

As to AAGGGTGT, the binding signal came to 0.32 E-score. The result for CCCACGTC reads -0.0514 E-score. The value for CTCAGCAC was -0.148 E-score. The result for GGTTCCTA reads -0.0423 E-score; that for ATGCCAAC, -0.091 E-score.

GACGAGTC: the binding signal is -0.0314 E-score. As for ACTGGTCA, the binding signal was -0.135 E-score. For GGCTAGTA, the binding signal was found to be 0.148 E-score. The result for AGTATTAC reads 0.188 E-score. The result for CCTAAAGG reads -0.0531 E-score; that for TACCGAAA, 0.0495 E-score. The value for TAAGCAGA was -0.104 E-score; that for ATAATTGG was -0.0332 E-score. Regarding ACCCCACG, the binding signal was 0.182 E-score. The result for TCTTCACA reads -0.0523 E-score; that for AGGTCCGC, -0.231 E-score. The value for AGTTCAGG was -0.141 E-score; that for ACACTCGC was 0.069 E-score. The result for GTTTGAGA reads 0.0377 E-score. With CTTAAGGA, the binding signal was -0.0392 E-score. The value for TGGCGAAA was -0.311 E-score. The result for GAGATAGC reads 0.161 E-score; that for GGCCTAGA, -0.193 E-score. The value for AGACCCAT was 0.014 E-score; that for AGTCGCAG was -0.157 E-score. For the sequence CTTTCTTC, the binding signal is -0.258 E-score. The result for CCCGTTAG reads -0.0499 E-score; that for CCTCTTAG, -0.0751 E-score; that for TGCGACAA, -0.189 E-score. The value for GGAGAAGA was 0.022 E-score; that for CTATAGAA was -0.00138 E-score; that for ATGGCAAT was -0.14 E-score. In the case of AACTAACA, the binding signal is -0.111 E-score. The result for ATACAACC reads 0.159 E-score; that for AGAAGGCG, 0.00611 E-score; that for AAAAATTC, -0.317 E-score. Consider AAAAGATA, for which the binding signal was determined as 0.161 E-score.

For GCACCGCC, the binding signal is 0.0724 E-score. The value for ATTGTCGG was 0.0446 E-score. The result for GAAGCGAC reads -0.163 E-score; that for ACTCGTCC, -0.0883 E-score. The value for CGACCATC was -0.12 E-score; that for GACTGCCA was -0.296 E-score. Take AGCCATAT: the binding signal was 0.324 E-score. The result for GTAGATTA reads 0.182 E-score; that for CTACTGCA, -0.102 E-score. The result for ACAGTCCA reads -0.165 E-score; that for GAATGAAC, -0.213 E-score. The value for AAACTCCC was -0.118 E-score.

For CACCTCGA, the binding signal is 0.0863 E-score.

As to CAGTCAGA, the binding signal amounted to 0.0195 E-score.

As to GTGTCCAA, the binding signal amounted to 0.221 E-score. The value for AAGGGGAA was -0.223 E-score; that for CTAGCGAA was -0.281 E-score; that for CATATTAC was 0.219 E-score. The value for TGGCCACA was -0.104 E-score; that for ACGCTTCT was -0.105 E-score; that for AAACACCG was 0.123 E-score. The result for CGTCAGAC reads -0.0794 E-score.

As for AGCTCTTC, the binding signal was -0.0121 E-score.

For CGAAATAA, the binding signal was -0.131 E-score. The value for ATATTGTA was 0.294 E-score; that for CCGACAAG was 0.0383 E-score; that for CCTCTAAC was 0.0374 E-score. The result for GTGCATTA reads -0.131 E-score. The result for GGCTCCTA reads 0.064 E-score; that for GCACCCCA, 0.0983 E-score. In the case of ACTTAGGG, the binding signal is -0.0109 E-score. The result for GAGTATTA reads 0.261 E-score; that for CCGATTCG, 0.0611 E-score.

In the case of AACCATTC, the binding signal was -0.315 E-score. For ATGTAAGC, the binding signal was found to be 0.00536 E-score.

As for ATCCGCAA, the binding signal turned out to be 0.256 E-score.

In the case of CTAGTAAG, the binding signal is -0.0158 E-score.

As to CAACCACC, the binding signal is -0.183 E-score. The result for CTCAATAA reads 0.023 E-score. The value for GTTGAAAA was -0.193 E-score. The value for CCTCCTGC was -0.129 E-score; that for CTTGAGCC was -0.0139 E-score; that for AGCGGAGA was 0.134 E-score.

These data come from PMC10668032.
